Assay results as given in the supplement of paper PMC3334620.
The full ranking holds about 33,000 sequences; the median of “E-score (-0.5 to 0.5)” is about -0.012, and the highest 2% start at about 0.29. The list shows a part of the results.

biological target: T1, Ybr033w (UniProt P38073); assay: PBM E-score (8-mer binding enrichment) (E-score (-0.5 to 0.5)); higher = stronger / more preferred TF binding; most listed sequences are background and not binding sites; settings: protein concentration: 200 nM; construct: GST-full length
T1 sequence: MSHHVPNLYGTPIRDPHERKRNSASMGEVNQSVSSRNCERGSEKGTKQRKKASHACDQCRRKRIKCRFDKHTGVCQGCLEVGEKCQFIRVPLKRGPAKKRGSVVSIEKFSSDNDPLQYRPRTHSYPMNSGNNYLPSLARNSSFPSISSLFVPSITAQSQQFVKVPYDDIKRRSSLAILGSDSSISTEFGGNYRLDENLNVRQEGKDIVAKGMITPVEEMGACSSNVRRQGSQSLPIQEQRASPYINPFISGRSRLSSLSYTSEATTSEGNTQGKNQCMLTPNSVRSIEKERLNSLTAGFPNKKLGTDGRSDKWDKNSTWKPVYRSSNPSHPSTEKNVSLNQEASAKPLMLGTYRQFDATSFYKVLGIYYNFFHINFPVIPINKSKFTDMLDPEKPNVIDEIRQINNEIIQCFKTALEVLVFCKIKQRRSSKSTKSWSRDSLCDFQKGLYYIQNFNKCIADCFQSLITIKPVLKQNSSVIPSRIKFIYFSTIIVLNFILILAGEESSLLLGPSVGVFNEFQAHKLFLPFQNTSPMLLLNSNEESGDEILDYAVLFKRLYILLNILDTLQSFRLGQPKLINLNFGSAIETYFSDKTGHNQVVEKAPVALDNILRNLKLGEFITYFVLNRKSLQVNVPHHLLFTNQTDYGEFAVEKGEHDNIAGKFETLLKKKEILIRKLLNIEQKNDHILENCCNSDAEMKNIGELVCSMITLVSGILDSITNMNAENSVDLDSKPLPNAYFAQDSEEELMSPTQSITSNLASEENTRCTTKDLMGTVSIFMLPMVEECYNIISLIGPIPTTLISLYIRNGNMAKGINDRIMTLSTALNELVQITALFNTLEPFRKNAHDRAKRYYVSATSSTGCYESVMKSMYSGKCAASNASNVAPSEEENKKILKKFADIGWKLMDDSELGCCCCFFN
Summary of the method: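 Bound GST-tagged yeast transcription factors, applied at about 100-200 nM to double-stranded universal all-10-mer Agilent arrays, were detected with fluorescent anti-GST. Scans were normalised with masliner. A modified Wilcoxon-Mann-Whitney statistic, the E-score, was assigned to each ungapped eight-base word pooled with its reverse complement by the Universal PBM Analysis Suite.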

Row | Sequence | PBM E-score
1 | ATAGGTCC | 0.0798
2 | ATGATGTG | 0.0387
3 | CGTCAGAC | -0.131
4 | AGATTTTC | 0.322
5 | CACGGCAG | -0.158
6 | AACGGCGC | -0.133
7 | CGTCCGAA | 0.0162
8 | GTCTTTTA | -0.257
9 | ACGCGTCT | -0.12
10 | GACGTCAA | -0.013
11 | AGCCCCTG | -0.393
12 | ATAGAAGG | -0.176
13 | AACCCTAA | 0.138
14 | GCAAGTGC | -0.086
15 | CTGCGCTC | -0.231
16 | AGTGCCCG | -0.17
17 | CTGAATGA | 0.103
18 | AAAGCCGT | 0.0257
19 | ATCTTTTA | 0.236
20 | GCACGGGC | -0.318
21 | CGCATGCG | -0.202
22 | ACGGTCGA | -0.0846
23 | CGTGGACA | -0.063
24 | AACCGTTG | -0.0126
25 | ACAGGGCC | -0.285

Row | Sequence | PBM E-score
26 | CTACAGCC | -0.202
27 | CTAGGAAC | 0.0556
28 | AAAACTGC | 0.0906
29 | CTCCTTGC | -0.13
30 | GGCCGAAA | 0.0513
31 | AACGAAGA | 0.0681
32 | AAACGGTC | 0.00782
33 | CCTATGGC | -0.173
34 | AGAATGGG | -0.121
35 | GCCGCGCA | -0.0876
36 | ACTCAGGA | 0.0245
37 | AAAACGTG | 0.0251
38 | GCGGTAAC | 0.0151
39 | AAGATCGG | -0.184
40 | AGGATCTA | -0.163
41 | ATTACGGA | 0.156
42 | GGAAAAGA | 0.0452
43 | GGCCGCAC | -0.213
44 | AATCCCGT | 0.141
45 | TCGTAACA | 0.149
46 | GATGTAAA | 0.137
47 | GATCCGAA | 0.132
48 | AGAGGTAA | 0.0981
49 | TATGATCA | 0.0776
50 | AGGGAAAC | -0.243

Row | Sequence | PBM E-score
51 | ATGGAACA | 0.182
52 | CACTAAAA | 0.221
53 | CGTTAAAC | 0.166
54 | CCCTTAGC | -0.222
55 | CCTACAGG | -0.155
56 | CCAGCCCG | -0.156
57 | TCTTTCCA | -0.0221
58 | AAAGGTAA | 0.0929
59 | ATAACAAG | 0.191
60 | CGATGGAC | -0.0622
61 | AATTCAAC | 0.184
62 | ACTATCCG | 0.16
63 | GACTACGC | -0.113
64 | CTCCGGAA | 0.22
65 | ATATTTGG | 0.169
66 | CTCACTGA | -0.00144
67 | GGGCAGAC | -0.241
68 | CACCGGCC | -0.372
69 | GGCAGTGA | -0.141
70 | GCGTACGC | -0.188
71 | ACTTTCGA | 0.0977
72 | AAAAGTTA | 0.288
73 | AATCGGCA | 0.0821
74 | CAAAAGAG | 0.0769
75 | ATCCACAG | 0.0329

Row | Sequence | PBM E-score
76 | ATTATGAG | 0.0699
77 | AACGAGGC | -0.195
78 | AAAGTTGT | 0.302
79 | AGTAGGGG | 0.0688
80 | AGTCTTCA | -0.0281
81 | GAGCAACC | 0.00662
82 | GGCTGTGA | -0.201
83 | CGAACGGC | -0.0994
84 | ATTGAATA | 0.305
85 | ATTAGACG | 0.0658
86 | ATAGACAT | 0.0519
87 | CTTCGGCC | -0.24
88 | GCATGACA | 0.0303
89 | GGAGACCC | -0.232
90 | GATTGCCA | -0.00966
91 | CTGCGTTA | 0.00928
92 | AACCAAAT | 0.228
93 | ATTTACTC | 0.272
94 | TAAACCAA | 0.252
95 | AGCGTAAT | 0.0639
96 | CGGCTGCC | -0.147
97 | GATTTAGC | 0.105
98 | TCCAGTCA | -0.152
99 | ACGGGCCG | -0.31
100 | AGGATGTG | 0.0486

Row | Sequence | PBM E-score
101 | CGGTATCA | 0.0534
102 | CCAACGGG | -0.227
103 | AGAACATG | 0.0118
104 | GACGTCCC | -0.266
105 | AGGTCGGA | 0.0666
106 | CATGTATC | 0.0786
107 | TGCTTAAA | 0.274
108 | GCCCTTCA | -0.118
109 | AGCCGCGC | -0.158
110 | CCATGACC | -0.148
111 | AGAGCGTG | -0.237
112 | CTTATCTA | 0.247
113 | ATGCGAAA | 0.165
114 | AGTGGGAC | -0.209
115 | ATAAGTAG | 0.097
116 | ACACAGGT | -0.0343
117 | CACAAGGG | -0.253
118 | AGGTGGCC | -0.277
119 | AATGAAGA | 0.202
120 | AGATGCCA | -0.0032
121 | GGCCCGCA | -0.239
122 | CCTTCCAG | -0.294
123 | AATTACGA | 0.277
124 | CCTTGACG | -0.139
125 | GAGTCTTA | -0.0704

Row | Sequence | PBM E-score
126 | GGTCTCCA | -0.0292
127 | AGCTACCT | 0.0619
128 | TCTGGGAA | -0.0142
129 | ACTCGTCG | -0.126
130 | TATTTTCA | 0.224
131 | ATTGCGAG | 0.0737
132 | AATCGACA | 0.204
133 | ATGTCATA | 0.194
134 | GCCACCAA | -0.033
135 | CACACCAA | 0.0962
136 | TCGTCGAA | 0.145
137 | AGCTTTTG | 0.0346
138 | CTGCTCCA | -0.0917
139 | GTTCTAGA | 0.113
140 | AGTACAAC | -0.0666
141 | CACTAGGG | -0.133
142 | GGACACAC | -0.242
143 | CGAGCGCG | -0.049
144 | ACTCAGGG | -0.17
145 | CCTAGTTC | 0.0249
146 | AAGTATAG | 0.12
147 | CAATGCGG | -0.0396
148 | AAGAGCAA | -0.212
149 | ACATCGGT | -0.149
150 | GTGCGCAC | 0.0505

Row | Sequence | PBM E-score
151 | CGCTAAAA | -0.00547
152 | CCCATAGA | -0.207
153 | ACCGCCAG | -0.143
154 | AAGTGACG | 0.0266
155 | GAAAGTAA | 0.104
156 | GTTCTATA | 0.0383
157 | AGATCAGG | -0.108
158 | CTTGACCC | -0.263
159 | AGCGTCAC | -0.126
160 | CTTCATGC | -0.104
161 | AATGACAT | 0.11
162 | CATTGAAC | 0.124
163 | ACCTCAAG | -0.0671
164 | TAAAGTAA | 0.154
165 | TATGCACA | 0.139
166 | CGCATATA | -0.0552
167 | CCCCCCTA | -0.285
168 | GGCGCGTA | -0.211
169 | GATATTCC | 0.417
170 | TCCTAGGA | 0.0318
171 | ACTTTACC | 0.261
172 | TGGGATAA | 0.123
173 | GAGTCGAA | 0.173
174 | ATGATTCC | 0.336
175 | AGTCAAAA | 0.098

Row | Sequence | PBM E-score
176 | CTTCAGGA | 0.177
177 | ACACTTCA | 0.135
178 | CCAGCATA | -0.0558
179 | ATCGGTCC | -0.247
180 | CCTGATAG | -0.156
181 | GTCTCGGA | -0.0865
182 | AGGCTTGC | -0.0927
183 | AGAGCTCG | -0.192
184 | ACTGCAGA | -0.049
185 | GGGTCCAC | -0.303
186 | AACTCGGC | 0.0677
187 | CTAGTTAA | 0.15
188 | CTGCGGAC | -0.164
189 | ACCACAGC | -0.0174
190 | CTGGAAAA | 0.377
191 | TACTAAGA | 0.104
192 | CGAGTCCG | -0.11
193 | AAGACTGG | 0.0624
194 | CGACAGAG | -0.0289
195 | TGGAGCCA | -0.169
196 | CAGGGGTC | -0.266
197 | CCTCGTCG | -0.059
198 | AGATAGGC | -0.113
199 | AGCACGGG | -0.171
200 | CAATAGAG | -0.0533

Row | Sequence | PBM E-score
201 | ACGTGCCG | -0.222
202 | CATACCTA | 0.0448
203 | AGAAGGTC | 0.0252
204 | GGAGCAGA | -0.231
205 | AGAAGTAT | 0.184
206 | CGCGTAGA | -0.0474
207 | ACCGAAGG | -0.101
208 | GCCGAGGA | 0.148
209 | GAGGTGGA | -0.223
210 | TCGTGACA | -0.171
211 | CCCCCGGG | -0.364
212 | CCTTATAG | 0.153
213 | ACCCTTCA | -0.0354
214 | CCATATCG | 0.0253
215 | ACTAAGCC | 0.112
216 | TAGATTGA | 0.233
217 | GAAACAGA | 0.18
218 | TACCCACA | -0.122
219 | TCTCCCCA | -0.207
